Measurements as given in PubChem BioAssay AID1508624 (National Center for Advancing Translational Sciences (NCATS), 2021).
The whole screen tested about 48,000 compounds, of which about 120 (0.25%) were called active. Another 4% or so got no clear call; they are omitted. Calls follow the shape of the dose curve; as a rule, active = well fitted activation curve with a large enough effect; inconclusive = small, poorly fitted or top-dose-only effect, or another doubt; inactive = no such curve, though single readings can be large or run the other way. Some of the results follow.

Assay: Primary qHTS for Identification of Small Molecule Activators of Huntingtin-Antisense Promoter Activity; also: nearly all actives have a fitted effect of over 55% in size
Conditions: HEK293 HTT-AS promoter firefly luciferase reporter, 24 h; series mostly up to 57.5 µM; activity change, positive = activation: at the top concentration
Outline: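 HEK293 Fluc reporter, 2,500 cells/well, 24 h pre-culture; cpds up to 57.5 uM final, 24 h 37 degrees C; Dual-Glo, 10 min RT; normalized vehicle = 0%, zero RLU = -100%.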

Activity change, positive = activation, inactive:
O=C(NCc1ccc(Cl)cc1Cl)c1cccc(N2CCCS2(=O)=O)c1 -31.7%, CCn1cc2nc(SCc3cccc(C(F)(F)F)c3)n(Cc3ccc(C)cc3)c(=O)c2n1 2.6%, Cc1cc(F)ccc1NC(=O)c1c(C)oc2c1C1=NCCN1C=N2 -7.27%, CCc1ccccc1NC(=O)CSc1nc2c(c(=O)[nH]1)CN(Cc1ccccc1OC)CC2 2.53%, COc1ccccc1-n1c(=O)n(C)c2c(C(N)=O)nc(-c3cc(OC)c(OC)c(OC)c3)nc21 -19.3%, CCCCCCC1CCC(C(=O)NC(C(=O)O)C(C)C)CC1 (centres undefined) -27.3%, O=C(CSc1oc(-c2ccco2)nc1S(=O)(=O)c1ccc(Cl)cc1)Nc1ccc(F)cc1 -6.54%, CC(C)c1ccc(NC(=O)CSC2=Nc3ccccc3C3=NC(CC(=O)NC4CCCCC4)C(=O)N23)cc1 (centres undefined) -35.4%, COc1ccc(-c2nc3ccccc3n3c(-c4ccccc4)c4c(=O)n(C)c(=O)n(C)c4c23)cc1 5.95% [at 11.5 µM, percent change from vehicle, -100% = no light], COc1ccc2c(Sc3ccc(Cl)cc3)c(C(=O)N3CCCCC3)[nH]c2c1 -10.4%, Cc1ccc(/C=C/c2onc(C)c2S(=O)(=O)N2CCC(C(=O)N(CCC(C)C)Cc3ccco3)CC2)cc1 17.3%, COc1ccc(N2CCN(CCCNC(=O)c3ccc4nc(N5CCCCC5)sc4c3)CC2)cc1 -55.7%, CCc1cccc(NC(=O)CCNS(=O)(=O)c2ccc3c(c2)CCN3C(C)=O)c1 11.1%, Cc1ccc(N2C(=O)CSC23C(=O)N(CC(=O)Nc2ccccc2F)c2ccccc23)cc1C (centres undefined) -10.9%, Cc1ccc(CNC(=O)c2ccc(CS(=O)(=O)c3ccccc3C)o2)cc1 -14%, CCOC(=O)CSc1nc2cc3c(cc2c(=O)n1CCCCCC(=O)NCc1ccc(OC)cc1)OCO3 -8.73%, CN(C)c1ccc(CNC(=O)c2ccc3nc(CCc4ccccc4)oc3c2)cc1 21.4%, COc1ccccc1NC(=O)Cn1c(=O)n(-c2ccc(C)cc2)c(=O)c2c1cnn2C -5.25%, COc1ccc(-n2nc(C(=O)Nc3cccc(Cl)c3)c3c4ccccc4n(C)c3c2=O)cc1Cl -4.49%, O=C(Nc1ccc(Br)cc1)c1cccc(S(=O)(=O)N2CCc3ccccc32)c1 -56.8%, CC(C)(C)c1ccc(-c2nnc(-c3ccccc3NC(=O)c3ccc(F)cc3F)o2)cc1 -20.3%, CCOC(=O)c1cccc(NC(=O)c2cnn(-c3ccccc3)c2-n2cccc2)c1 -24.2%, CC(=O)N1c2ccccc2C(=O)C1N1CCN(c2cc(Cl)ccc2C)CC1 (centres undefined) -33.7%, O=C(CSCc1cc(=O)c2ccccc2[nH]1)Nc1cccc(C(F)(F)F)c1 -15.9%
